Assay results taken from paper PMC6236770.
Results are given in words; binding and its absence hold for the method and conditions named. Binding seen in cells or lysates may run through a third protein. Some entries that bind do so weakly or less than the wild type. Where a sequence is shown, tags or fusion partners need not be part of it.

What was measured:
[1] = molecular target: T1, GsiC fused to a GFP fragment (pC-gsiC, pMRBAD-link-CGFP) (E. coli) (UniProt P75798); experiment: split reporter; GFP fragments reassembly in E. coli BL21(DE3); M9 medium plate with MgSO4 replaced by MgCl2 and reduced glutathione (1 mM) as only sulfur source; fluorescence under UV light
T1 sequence: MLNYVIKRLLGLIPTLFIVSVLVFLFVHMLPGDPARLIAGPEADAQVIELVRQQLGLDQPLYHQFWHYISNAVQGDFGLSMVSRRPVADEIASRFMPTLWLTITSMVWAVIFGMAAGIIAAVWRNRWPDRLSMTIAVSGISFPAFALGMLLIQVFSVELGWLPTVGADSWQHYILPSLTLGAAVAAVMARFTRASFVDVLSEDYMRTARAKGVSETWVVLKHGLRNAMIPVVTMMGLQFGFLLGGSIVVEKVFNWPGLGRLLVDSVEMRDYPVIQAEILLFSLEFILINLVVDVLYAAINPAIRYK

[2] = molecular target: T2, GsiD fused to a GFP fragment (pC-gsiD, pMRBAD-link-CGFP) (E. coli) (UniProt P75799); experiment: as above
T2 sequence: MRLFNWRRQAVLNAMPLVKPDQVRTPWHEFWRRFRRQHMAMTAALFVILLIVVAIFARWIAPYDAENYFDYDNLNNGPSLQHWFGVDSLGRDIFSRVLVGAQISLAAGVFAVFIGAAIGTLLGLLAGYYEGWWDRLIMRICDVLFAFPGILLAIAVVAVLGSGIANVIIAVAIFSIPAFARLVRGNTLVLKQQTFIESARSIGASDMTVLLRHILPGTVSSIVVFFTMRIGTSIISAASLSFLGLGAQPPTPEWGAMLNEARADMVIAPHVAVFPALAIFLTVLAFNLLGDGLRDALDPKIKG

[3] = molecular target: T3, GsiA fused to a GFP fragment (pC-gsiA, pMRBAD-link-CGFP) (E. coli) (UniProt P75796); experiment: as above
T3 sequence: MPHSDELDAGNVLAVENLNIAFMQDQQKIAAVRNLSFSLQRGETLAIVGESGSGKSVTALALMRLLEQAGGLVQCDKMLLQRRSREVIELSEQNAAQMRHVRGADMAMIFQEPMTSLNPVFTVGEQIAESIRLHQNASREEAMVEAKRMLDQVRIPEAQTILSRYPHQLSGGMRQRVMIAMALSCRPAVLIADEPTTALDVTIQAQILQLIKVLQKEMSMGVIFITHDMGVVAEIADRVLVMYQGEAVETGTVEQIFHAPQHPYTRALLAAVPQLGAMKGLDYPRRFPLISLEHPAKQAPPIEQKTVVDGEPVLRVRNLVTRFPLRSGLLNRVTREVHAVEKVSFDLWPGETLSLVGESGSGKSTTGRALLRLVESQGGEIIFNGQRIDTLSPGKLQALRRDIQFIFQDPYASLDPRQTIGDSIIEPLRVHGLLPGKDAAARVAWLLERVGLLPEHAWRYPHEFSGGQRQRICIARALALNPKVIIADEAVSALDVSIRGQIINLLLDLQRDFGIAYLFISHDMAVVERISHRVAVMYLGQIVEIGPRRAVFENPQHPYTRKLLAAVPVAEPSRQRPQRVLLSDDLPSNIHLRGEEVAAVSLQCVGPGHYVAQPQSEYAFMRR

[4] = molecular target: T1, GsiC fused to a GFP fragment (pC-gsiC, pMRBAD-link-CGFP) (E. coli); experiment: split reporter; GFP fragments reassembly in E. coli BL21(DE3) co-transformed with pET11a-link-NGFP and pMRBAD-link-CGFP constructs; LB plate (no glutathione added), 0.2% arabinose and 10 uM IPTG, 20°C for 2 days; fluorescence under UV light
[5] = molecular target: T2, GsiD fused to a GFP fragment (pC-gsiD, pMRBAD-link-CGFP) (E. coli); experiment: as above
[6] = molecular target: T3, GsiA fused to a GFP fragment (pC-gsiA, pMRBAD-link-CGFP) (E. coli); experiment: as above

B1: GsiB fused to a GFP fragment (pN-gsiB, pET11a-link-NGFP) (protein, UniProt P75797 27-512)
chain: AKDVVVAVGSNFTTLDPYDANDTLSQAVAKSFYQGLFGLDKEMKLKNVLAESYTVSDDGITYTVKLREGIKFQDGTDFNAAAVKANLDRASDPANHLKRYNLYKNIAKTEAIDPTTVKITLKQPFSAFINILAHPATAMISPAALEKYGKEIGFYPVGTGPYELDTWNQTDFVKVKKFAGYWQPGLPKLDSITWRPVADNNTRAAMLQTGEAQFAFPIPYEQATLLEKNKNIELMASPSIMQRYISMNVTQKPFDNPKVREALNYAINRPALVKVAFAGYATPATGVVPPSIAYAQSYKPWPYDPVKARELLKEAGYPNGFSTTLWSSHNHSTAQKVLQFTQQQLAQVGIKAQVTAMDAGQRAAEVEGKGQKESGVRMFYTGWSASTGEADWALSPLFASQNWPPTLFNTAFYSNKQVDDFLAQALKTNDPAEKTRLYKAAQDIIWQESPWIPLVVEKLVSAHSKNLTGFWIMPDTGFSFEDADLQ
binding [1]: binds | binding [2]: binds | binding [3]: no binding | binding [4]: no binding (condition: on LB plate, without glutathione) | binding [5]: no binding (condition: on LB plate, without glutathione) | binding [6]: no binding
